# Experimental data taken from article PMC6919601, “Identification of Plasmodium dipeptidyl aminopeptidase allosteric inhibitors by high throughput screening” (PLoS ONE, 2019).
# In all, about 110,000 compounds went through this assay and about 230 (0.21%) showed an effect of 50% or more. This is one part of the list.
# Target: DPAP1 (Plasmodium falciparum, UniProt Q8IIJ9)
# Assay: primary screen, percent inhibition; read by cleavage of a fluorogenic dipeptide substrate; higher = more effect of the substance
# Set-up: species or system P. falciparum D10 trophozoite lysates; single well
# 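Also: 30 min substrate incubation versus DMSO and 10 µM JCP410 controls.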
# DPAP1, sequence (Q8IIJ9 whole entry, looked up): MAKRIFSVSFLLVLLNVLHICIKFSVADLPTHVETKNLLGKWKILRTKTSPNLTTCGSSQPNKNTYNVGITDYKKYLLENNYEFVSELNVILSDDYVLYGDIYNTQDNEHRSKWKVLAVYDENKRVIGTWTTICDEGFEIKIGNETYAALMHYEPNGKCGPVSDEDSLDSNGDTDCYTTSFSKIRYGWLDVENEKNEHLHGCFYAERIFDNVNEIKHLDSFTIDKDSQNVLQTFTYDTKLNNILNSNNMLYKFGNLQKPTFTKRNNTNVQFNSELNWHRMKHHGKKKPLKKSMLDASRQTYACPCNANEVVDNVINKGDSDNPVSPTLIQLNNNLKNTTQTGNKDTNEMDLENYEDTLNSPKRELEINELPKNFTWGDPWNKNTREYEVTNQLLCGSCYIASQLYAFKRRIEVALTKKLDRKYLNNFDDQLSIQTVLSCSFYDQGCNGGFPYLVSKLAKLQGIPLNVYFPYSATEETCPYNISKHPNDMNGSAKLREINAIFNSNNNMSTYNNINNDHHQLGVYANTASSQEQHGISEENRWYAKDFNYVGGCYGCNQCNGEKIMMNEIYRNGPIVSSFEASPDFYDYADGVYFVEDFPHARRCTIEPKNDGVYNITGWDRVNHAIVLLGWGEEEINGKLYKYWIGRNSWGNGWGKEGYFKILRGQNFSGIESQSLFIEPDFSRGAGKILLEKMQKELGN
row,Compound,% Inhibition @ 10 uM [%]
1,CCCCCC(=O)Nc1ccc(N(C)C)cc1,-2.19
2,Cc1ccc(C2CC(C(F)(F)F)n3ncc(C(=O)NCc4cnn(C)c4C)c3N2)cc1 (centres unmarked),4.22
3,Cn1c2c(c(O)c(-c3ccccc3)c1=O)C(=O)CC(C)(C)C2,3.99
4,COC(=O)C1=C(N)OC2=C(C(=O)CCC2)C1c1ccc(OC)cc1 (centres unmarked),1.54
5,CC(=O)n1nc(C)cc1-c1ccccc1,0.00178
6,COc1ccccc1N1CCN(C(=O)CN(Cc2ccc(C)cc2)S(=O)(=O)c2ccccc2)CC1,3.53
7,COc1ccccc1NCC(C)(C)CC=C(C)C,-0.0369
8,OCCOCCNc1ncnc2sc3c(c12)CCCC3,-2.65
9,Cc1ccc(C(=O)[C@H]2[C@H]3C(=O)N(C)C(=O)[C@H]3[C@@H]3c4ccccc4C=CN23)cc1,-3.41
10,COc1cccc(NC(=O)C2=C(C)NC(=O)NC2c2ccccc2OC)c1 (centres unmarked),5.29
11,Cc1nn(-c2ccc(F)cc2)c(-n2cccc2)c1C(=O)NCCc1c[nH]c2ccccc12,4.79
12,C=CCN1C(=O)/C(=C\c2ccc(C(=O)O)cc2)S/C1=N\c1nnc(C)s1,9.39
13,CCN1C2=C(C(=O)CC(C)(C)C2)C(c2ccc(OC)c(Cl)c2)C2=C1CC(C)(C)CC2=O,3.47
14,Cc1ccc(NC(=O)c2cc(S(=O)(=O)N3CCOCC3)c(Br)s2)cc1,-5.7
15,C=CCn1nnc2sc3c(c2c1=O)CCCC3,3.87
16,CC(C)CC(C(=O)N1CCCCC1)N1C(=O)c2cc(Cl)c(Cl)cc2C1=O (centres unmarked),-4.74
17,CN1CCN(C(=O)NC23CC4(C)CC(C)(CC(C)(C4)C2)C3)CC1,-5.6
18,COc1cc(OC)c(C2C(C#N)=C(N)Oc3[nH]nc(-c4cccnc4)c32)cc1OC (centres unmarked),-6.35
19,CCOc1ccccc1C1NC(=O)NC(C)=C1C(=O)OCc1ccccc1 (centres unmarked),22.5
20,CCOc1ccccc1C1N(c2ccccn2)C(=O)C2CCCN21 (centres unmarked),-2.29
21,COc1ccc(CCNC(=O)c2cc3c(=O)oc4ccc(C)cc4c3s2)c(OC)c1,3.06
22,COc1ccccc1N(CC(=O)Nc1ccccc1C(C)C)S(C)(=O)=O,-18.8
23,c1ccc(CN2CCN(C3CCCSc4ccccc43)CC2)cc1 (centres unmarked),-6.37
24,Cn1c2c(c(=O)n(C)c1=O)C(NS(=O)(=O)c1ccc(Cl)cc1)(C(F)(F)F)C(=O)N2 (centres unmarked),0.561
25,NC(=O)c1c(NC(=O)c2ccc(Br)o2)sc2c1CCCC2,-2.45
26,O=C(C1=C(O)C(=O)N(CN2CCOCC2)C1c1ccc(Br)cc1)c1ccccc1 (centres unmarked),-9.31

row,Compound,% Inhibition @ 10 uM [%]
1,C=CCn1c(SCc2ccc(Cl)cc2)nc(O)cc1=O,-1.64
2,COC(=O)/C(C#N)=C/c1c(Oc2ccc(Br)cc2)nc2c(C)cccn2c1=O,0.315
3,COc1cccc(-c2cc(C(=O)Nc3ncccn3)c3ccccc3n2)c1,-7.62
4,CC(=O)Nc1ccc(C23CC4CC(CC(C4)C2)C3)c(C)c1,-2.59
5,CCCCN(CC)C(=O)Cc1nc(-c2ccc(OC)cc2)no1,-3.74
6,O=S(=O)(/N=C(\Oc1ccccc1)c1ccccc1)c1ccc(Br)cc1,-2.41
7,CCOc1c(Br)cc(/C=C2/SC(=O)N(CC(=O)N3CCCC3)C2=O)cc1OC,-5.54
8,CCc1cc2c(cc3c(=O)n(CC(=O)NCCCN(CC)CC)nc(CC)n32)s1,6.35
9,CCOc1ccc(NC(=O)CN(c2ccc(Cl)c(C(F)(F)F)c2)S(C)(=O)=O)cc1,4.08
10,CC1CCCCN1Cc1nc2ccccc2c(=O)n1-c1ccc(F)cc1 (centres unmarked),0.245
11,CC(C)(C)/C(=C\n1ccnc1)c1ccc(C(F)(F)F)cc1,3.62
12,Cc1nnc2c(SCc3ccco3)nc3ccccc3n12,0.91
13,CCOC(=O)C1=C(N)OC2=C(C(=O)CC(C)(C)C2)C1c1ccc(CC)s1 (centres unmarked),-4.98
14,COc1cccc(OC)c1C(=O)Nc1ccccc1-c1ccccc1,0.273
15,Clc1ccc(OCCN2CCN(c3ncnc4c3cnn4-c3ccccc3)CC2)cc1,0.426
16,COc1ccc(C(=O)N2CCCCC2)cc1S(=O)(=O)NC(C)C,-7.37
17,CC1(C)CC(=O)C(/C=N/CCN2CCOCC2)=C(O)C1,4.55
18,O=C(NCC1(c2ccccc2)CCOCC1)c1ccccc1F,2.17
19,COc1ccc(CC(=O)NCCc2csc3ccc(Cl)cc23)cc1OC,0.843
20,Cc1ccccc1NC(=O)C(C)SCc1ccccc1 (centres unmarked),-4.48
21,Clc1ccc(N2CCN(Cc3cccs3)CC2)cc1,-1.92
22,Cc1ccc(Nc2nc(-c3ccccc3O)nc3ccccc23)cc1,3.53
23,Cc1ccc(C2C=C(c3ccc(Br)cc3)Nc3ncnn32)cc1 (centres unmarked),-5.11
24,CCCNc1cc(C)oc(=O)c1C(=O)CCC,-5.68
25,CC(C)(C)C(=O)Nc1nsc(-c2ccccc2)n1,-4.62
26,O=S(=O)(O)CCC[n+]1ccc(/C=C/c2c[nH]c3ccccc23)cc1,-1.18

row,Compound,% Inhibition @ 10 uM [%]
1,CCCOc1cc(-n2nc(SC)c(C#N)c2N)nc(SC)n1,-4.65
2,CCOc1ccc(-n2nnc(-c3nc(-c4ccc5c(c4)OCO5)no3)c2N)cc1,-2.76
3,COc1cc(/C=C(/C#N)C(N)=S)ccc1OCc1ccccc1,-2.89
4,CCOc1cc(CN2CCSCC2)ccc1O,96.4
5,CCCCCC12CCC(O)(CC1)CC2=O,0.912
6,CN(C)CCN(C)Cc1cc(Br)cs1,0.215
7,COc1cccc(C(=O)Nc2ccc(C(C)C)cc2)c1,-1.25
8,Cc1cc(NC(=O)CCn2cnnn2)no1,1.76
9,COc1ccc(-c2nnc3n2N=C(c2cc4cccc(OC)c4oc2=O)CS3)cc1,6.65
10,CCOC(=O)C1CCCN(Cc2cccc(C)c2)C1 (centres unmarked),-3.71
11,COc1ccc(-n2ncc(C(=O)N3CCCC3)c2C2CCN(C(=O)OC(C)(C)C)CC2)cc1,-10.2
12,CCOC(=O)C1=C(C)N(C)C(C)=C(C(=O)OCC)C1c1ccccc1,1.03
13,CCn1c(-c2nc3ccccc3n2CC)nc2ccccc21,-4.39
14,c1ccc(CC2CCN(c3nnc(Cc4cccnc4)c4ccccc34)CC2)cc1,-10.4
15,Cc1ccc(-c2cc(C(=O)NCc3cccnc3)c3ccccc3n2)cc1C,-4.06
16,N#CC1=C(c2ccccc2)C(c2ccccc2)OC1=O (centres unmarked),-1.86
17,Cc1ccc(C)c(NC2=C(Cl)C(=O)N(c3ccccc3)C2=O)c1,4.28
18,Cn1c(=O)c2nnc(O)nc2n(C)c1=O,0.558
19,O=C(CSc1[nH]c(-c2ccccc2)nc1-c1ccccc1)Nc1nccs1,3.48
20,Cc1ccc2[nH]c3c(c2c1)CCCC3(C)C(N)=O (centres unmarked),1.57
21,CC1CCC(NC(=O)Cn2c3ccccc3c3cnnc(O)c32)CC1 (centres unmarked),-2
22,O=C(NCc1cccnc1)c1ccc(CN2CCC(Cc3ccccc3)CC2)cc1,-9.6
23,N#CC1=C(N)Oc2cc(O)ccc2C1c1cccc(O)c1 (centres unmarked),-3.48
24,C1CCCN(C2CN3CCC2CC3)CCC1 (centres unmarked),0.162
25,COc1ccccc1C1CC(=O)NC2=C1C(=O)CC(c1cccs1)C2 (centres unmarked),-2.95
26,CCOc1cccc2sc(N(CCN(C)C)C(C)=O)nc12,-1.14

row,Compound,% Inhibition @ 10 uM [%]
1,Cc1c2cnn(CC(=O)NCCCc3ccccc3)c(=O)c2c(C)n1Cc1ccccc1F,4.4
2,COC(=O)C1=CN(Cc2cccs2)C=C(C(=O)OC)C1c1ccc(OC)c(OC)c1OC,-6.91
3,Cc1cccc(C(=O)NCc2ccc(-n3cccc3)cc2)c1,4.31
4,COc1cc2c3c(c1OC)-c1ccccc1CC3N(C)CC2 (centres unmarked),-3.63
5,CC(C)(O)C#Cc1ccc(C(=O)N2CCN(c3ccc(F)cc3)CC2)cc1,-1.32
6,CN(C(=O)Nc1cn(C)c(=O)c2ccccc12)C1CCCCC1,6.08
7,Cc1ccc(OCc2occc2C(=O)O)cc1,3.06
8,Clc1ccccc1-c1ccc(-c2nn3c(-c4ccco4)nnc3s2)o1,-3.64
9,COc1ccc(Br)cc1/C=C1\N=C(c2cc(Br)ccc2OC)OC1=O,8.06
10,CC1(C)OC2C(CO)OC(n3c(Br)nc4c(O)nc(N)nc43)C2O1 (centres unmarked),-0.902
11,CCOC(=O)C1=C(C)OC(N)=C(C#N)C1c1ccc(Br)cc1 (centres unmarked),3.54
12,CCCN1CCN(C(=O)C2=C(C)C(=O)OC23CCN(S(=O)(=O)CC)CC3)CC1,-6.67
13,Cc1ccc(N2C(=O)C3C(C2=O)C2C=CC3C23CC3)cc1Cl (centres unmarked),-5.98
14,Cc1sc2nc3c4ccccc4c(N4CCN(CCO)CC4)nn3c(=O)c2c1C,6.58
15,CN(C)C(CNC(=S)NCCc1ccccc1)c1cccnc1 (centres unmarked),-0.499
16,CC(=O)N(CC12CC3CC(CC(C3)C1)C2)C1CC(=O)N(c2cccc(Cl)c2)C1=O (centres unmarked),0.475
17,COc1ccc(NC(=O)c2cc(-c3ccco3)nc3ccccc23)cc1,5.82
18,Nc1cc(O)nc(SCC(=O)N2c3ccccc3Sc3ccccc32)n1,-6.7
19,COc1cccc(-c2nn(C)c3sc(C(=O)NCc4cccnc4)cc23)c1,1.23
20,Cc1ccc(N(CC(=O)N2CCC(C)CC2)S(=O)(=O)c2ccccc2)cc1,-7.08
21,N#C/C(=C\c1c(Oc2ccc(Br)cc2)nc2ccccn2c1=O)C(=O)N1CCOCC1,-0.828
22,CCc1ccc(/C=C2\SC(N)=NC2=O)cc1,2.56
23,CC1CCN(C2=NN3C(=N)/C(=C\c4ccc(O)cc4)C(=O)N=C3S2)CC1,0.0579
